# Results taken from the supplement of paper PMC8728848.
# The other results are listed elsewhere or left out.
# B1: FGFR2-Fc (protein)
# chain: MVNVTDAISSGDDEDDTDGAEDFVSENSNNKRAPYWTNTEKMEKRLHAVPAANTVKFRCPAGGNPMPTMRWLKNGKEFKQEHRIGGYKVRNQHWSLIMESVVPSDKGNYTCVVENEYGSINHTYHLDVVERSPHRPILQAGLPANASTVVGGDVEFVCKVYSDAQPHIQWIKHVEKNGSKYGPDGLPYLKVLKHSGINSSNAEVLALFNVTEADAGEYICKVSNYIGQANQSAWLTVLPKQQAPGREKEITASPDYLETRPLEQKLISEEDLAANDILDYKDDDDKV
# Tests used:
# Assay in all cases: glycan array binding signal (z-score within array); higher = stronger binding
# Conditions in all cases: glycan notation: IUPAC condensed, linker removed
# [1] = biological target: Fuc(a1-2)[Gal(a1-3)]Gal(b1-4)GlcNAc(b1-2)Man(a1-3)[Fuc(a1-2)[Gal(a1-3)]Gal(b1-4)GlcNAc(b1-2)Man(a1-6)]Man(b1-4)GlcNAc(b1-4)[Fuc(a1-6)]GlcNAc
# Procedure, shortened: (§1)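 Glycan array binding is given as a within-array Z-score, which can be read as non-binding when negative. The arrays, 3228 of them, came from the Consortium for Functional Glycomics database and were retained only where the protein sequence was available. Z-scores were averaged across arrays of the same protein sequence at different concentrations or buffers and across linkers.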
# [2] = biological target: Fuc(a1-2)[Gal(a1-3)]Gal(b1-4)GlcNAc(b1-3)GalNAc
# Procedure, shortened: as §1
# [3] = biological target: Fuc(a1-2)[Gal(a1-3)]Gal(b1-4)GlcNAc(b1-3)[Fuc(a1-2)[Gal(a1-3)]Gal(b1-4)GlcNAc(b1-6)]GalNAc
# Procedure, shortened: as §1
# [4] = biological target: Fuc(a1-2)[Gal(a1-3)]Gal(b1-4)GlcNAc(b1-6)GalNAc
# Procedure, shortened: as §1
# [5] = biological target: Fuc(a1-2)[Gal(a1-3)]Gal(b1-4)[Fuc(a1-3)]Glc
# Procedure, shortened: as §1
# [6] = biological target: Fuc(a1-2)[Gal(a1-3)]Gal(b1-4)[Fuc(a1-3)]GlcNAc
# Procedure, shortened: as §1
# [7] = biological target: Fuc(a1-2)[Gal(a1-3)]Gal(b1-4)[Fuc(a1-3)]GlcNAc(b1-3)GalNAc
# Procedure, shortened: as §1
# [8] = biological target: Fuc(a1-2)[Gal(a1-4)]Gal(b1-4)GlcNAc
# Procedure, shortened: as §1
# [9] = biological target: Fuc(a1-2)[GalNAc(a1-3)]Gal
# Procedure, shortened: as §1
# [10] = biological target: Fuc(a1-2)[GalNAc(a1-3)]Gal(b1-3)GalNAc(a1-3)[Fuc(a1-2)]Gal(b1-4)GlcNAc
# Procedure, shortened: as §1
# [11] = biological target: Fuc(a1-2)[GalNAc(a1-3)]Gal(b1-3)GalNAc(b1-3)Gal(a1-4)Gal(b1-4)Glc
# Procedure, shortened: as §1
# [12] = biological target: Fuc(a1-2)[GalNAc(a1-3)]Gal(b1-3)GlcNAc
# Procedure, shortened: as §1
# [13] = biological target: Fuc(a1-2)[GalNAc(a1-3)]Gal(b1-3)GlcNAc(b1-2)Man(a1-3)[Fuc(a1-2)[GalNAc(a1-3)]Gal(b1-3)GlcNAc(b1-2)Man(a1-6)]Man(b1-4)GlcNAc(b1-4)GlcNAc
# Procedure, shortened: as §1
# [14] = biological target: Fuc(a1-2)[GalNAc(a1-3)]Gal(b1-3)GlcNAc(b1-2)Man(a1-3)[Fuc(a1-2)[GalNAc(a1-3)]Gal(b1-3)GlcNAc(b1-2)Man(a1-6)]Man(b1-4)GlcNAc(b1-4)[Fuc(a1-6)]GlcNAc
# Procedure, shortened: as §1
# [15] = biological target: Fuc(a1-2)[GalNAc(a1-3)]Gal(b1-3)GlcNAc(b1-3)GalNAc
# Procedure, shortened: as §1
# [16] = biological target: Fuc(a1-2)[GalNAc(a1-3)]Gal(b1-3)GlcNAc(b1-6)GalNAc
# Procedure, shortened: as §1
# [17] = biological target: Fuc(a1-2)[GalNAc(a1-3)]Gal(b1-4)Glc
# Procedure, shortened: as §1
# [18] = biological target: Fuc(a1-2)[GalNAc(a1-3)]Gal(b1-4)GlcNAc
# Procedure, shortened: as §1
# [19] = biological target: Fuc(a1-2)[GalNAc(a1-3)]Gal(b1-4)GlcNAc(b1-2)Man
# Procedure, shortened: as §1
# [20] = biological target: Fuc(a1-2)[GalNAc(a1-3)]Gal(b1-4)GlcNAc(b1-2)Man(a1-3)[Fuc(a1-2)[GalNAc(a1-3)]Gal(b1-4)GlcNAc(b1-2)Man(a1-6)]Man(b1-4)GlcNAc(b1-4)GlcNAc
# Procedure, shortened: as §1
# [21] = biological target: Fuc(a1-2)[GalNAc(a1-3)]Gal(b1-4)GlcNAc(b1-2)Man(a1-3)[Fuc(a1-2)[GalNAc(a1-3)]Gal(b1-4)GlcNAc(b1-2)Man(a1-6)]Man(b1-4)GlcNAc(b1-4)[Fuc(a1-6)]GlcNAc
# Procedure, shortened: as §1
# [22] = biological target: Fuc(a1-2)[GalNAc(a1-3)]Gal(b1-4)GlcNAc(b1-3)Gal(b1-4)GlcNAc
# Procedure, shortened: as §1
# [23] = biological target: Fuc(a1-2)[GalNAc(a1-3)]Gal(b1-4)GlcNAc(b1-3)Gal(b1-4)GlcNAc(b1-3)Gal(b1-4)GlcNAc
# Procedure, shortened: as §1
# [24] = biological target: Fuc(a1-2)[GalNAc(a1-3)]Gal(b1-4)GlcNAc(b1-3)GalNAc
# Procedure, shortened: as §1
# [25] = biological target: Fuc(a1-2)[GalNAc(a1-3)]Gal(b1-4)GlcNAc(b1-3)[Fuc(a1-2)[GalNAc(a1-3)]Gal(b1-4)GlcNAc(b1-6)]GalNAc
# Procedure, shortened: as §1
# [26] = biological target: Fuc(a1-2)[GalNAc(a1-3)]Gal(b1-4)GlcNAc(b1-6)GalNAc
# Procedure, shortened: as §1
# [27] = biological target: Fuc(a1-2)[GalNAc(a1-3)]Gal(b1-4)[Fuc(a1-3)]GlcNAc
# Procedure, shortened: as §1
# [28] = biological target: Fuc(a1-2)[GalNAc(a1-3)]Gal(b1-4)[Fuc(a1-3)]GlcNAc(b1-3)GalNAc
# Procedure, shortened: as §1
# [29] = biological target: Fuc(a1-2)[GalNAc(a1-4)]Gal(b1-4)GlcNAc
# Procedure, shortened: as §1
# [30] = biological target: Fuc(a1-2)[GalNAc(b1-3)]Gal
# Procedure, shortened: as §1
# Fuc(a1-3)GlcNAc = biological target: Fuc(a1-3)GlcNAc
# Procedure, shortened: as §1
# [31] = biological target: Fuc(a1-3)[Gal(b1-4)]Glc6S
# Procedure, shortened: as §1
# [32] = biological target: Fuc(a1-3)[Gal(b1-4)]GlcNAc
# Procedure, shortened: as §1
# [33] = biological target: Fuc(a1-3)[Gal(b1-4)]GlcNAc(b1-2)Man
# Procedure, shortened: as §1
# [34] = biological target: Fuc(a1-3)[Gal(b1-4)]GlcNAc(b1-2)Man(a1-3)[Fuc(a1-3)[Gal(b1-4)]GlcNAc(b1-2)Man(a1-6)]Man(b1-4)GlcNAc(b1-4)GlcNAc
# Procedure, shortened: as §1
# [35] = biological target: Fuc(a1-3)[Gal(b1-4)]GlcNAc(b1-2)Man(a1-3)[Fuc(a1-3)[Gal(b1-4)]GlcNAc(b1-2)Man(a1-6)]Man(b1-4)GlcNAc(b1-4)[Fuc(a1-6)]GlcNAc
# Procedure, shortened: as §1
# [36] = biological target: Fuc(a1-3)[Gal(b1-4)]GlcNAc(b1-3)Gal(b1-3)[Fuc(a1-4)]GlcNAc
# Procedure, shortened: as §1
# [37] = biological target: Fuc(a1-3)[Gal(b1-4)]GlcNAc(b1-3)Gal(b1-4)[Fuc(a1-3)]GlcNAc
# Procedure, shortened: as §1
# [38] = biological target: Fuc(a1-3)[Gal(b1-4)]GlcNAc(b1-3)Gal(b1-4)[Fuc(a1-3)]GlcNAc(b1-3)Gal(b1-4)[Fuc(a1-3)]GlcNAc
# Procedure, shortened: as §1
# [39] = biological target: Fuc(a1-3)[Gal(b1-4)]GlcNAc(b1-3)GalNAc
# Procedure, shortened: as §1
# [40] = biological target: Fuc(a1-3)[Gal(b1-4)]GlcNAc(b1-6)GalNAc
# Procedure, shortened: as §1
# [41] = biological target: Fuc(a1-3)[Gal(b1-4)]GlcNAc(b1-6)[Gal(b1-3)GlcNAc(b1-3)]Gal(b1-4)Glc
# Procedure, shortened: as §1
# [42] = biological target: Fuc(a1-3)[Gal(b1-4)]GlcNAc6S
# Procedure, shortened: as §1
# [43] = biological target: Fuc(a1-3)[Gal3S(b1-4)]Glc
# Procedure, shortened: as §1
# [44] = biological target: Fuc(a1-3)[Gal3S(b1-4)]GlcNAc
# Procedure, shortened: as §1
binder,measurement,setting,value
B1,glycan array binding signal (z-score),[1],0.248
same,glycan array binding signal (z-score),[2],0.523
same,glycan array binding signal (z-score),[3],-0.181
same,glycan array binding signal (z-score),[4],-0.635
same,glycan array binding signal (z-score),[5],-0.308
same,glycan array binding signal (z-score),[6],0.157
same,glycan array binding signal (z-score),[7],0.311
same,glycan array binding signal (z-score),[8],-0.441
same,glycan array binding signal (z-score),[9],0.136
same,glycan array binding signal (z-score),[10],-0.19
same,glycan array binding signal (z-score),[11],0.082
same,glycan array binding signal (z-score),[12],-0.081
same,glycan array binding signal (z-score),[13],-0.422
same,glycan array binding signal (z-score),[14],0.414
same,glycan array binding signal (z-score),[15],0.532
same,glycan array binding signal (z-score),[16],-0.753
same,glycan array binding signal (z-score),[17],0.258
same,glycan array binding signal (z-score),[18],-0.434
same,glycan array binding signal (z-score),[19],-0.039
same,glycan array binding signal (z-score),[20],0.034
same,glycan array binding signal (z-score),[21],-0.33
same,glycan array binding signal (z-score),[22],-0.564
same,glycan array binding signal (z-score),[23],-0.041
same,glycan array binding signal (z-score),[24],-0.332
same,glycan array binding signal (z-score),[25],-0.517
same,glycan array binding signal (z-score),[26],-0.19
same,glycan array binding signal (z-score),[27],-0.549
same,glycan array binding signal (z-score),[28],0.373
same,glycan array binding signal (z-score),[29],-0.017
same,glycan array binding signal (z-score),[30],-0.186
same,glycan array binding signal (z-score),Fuc(a1-3)GlcNAc,-0.323
same,glycan array binding signal (z-score),[31],0.766
same,glycan array binding signal (z-score),[32],-0.162
same,glycan array binding signal (z-score),[33],0.175
same,glycan array binding signal (z-score),[34],-0.403
same,glycan array binding signal (z-score),[35],0.482
same,glycan array binding signal (z-score),[36],-0.308
same,glycan array binding signal (z-score),[37],0.394
same,glycan array binding signal (z-score),[38],-0.375
same,glycan array binding signal (z-score),[39],0.287
same,glycan array binding signal (z-score),[40],-0.006
same,glycan array binding signal (z-score),[41],-0.327
same,glycan array binding signal (z-score),[42],1.73
same,glycan array binding signal (z-score),[43],-0.104
same,glycan array binding signal (z-score),[44],-0.17
